Source: PubChem BioAssay AID463173 (ICCB-Longwood Screening Facility, Harvard Medical School, 2010)
Among all 52,000 compounds or so, about 1,700 (3.3%) were called active. Cut-off read from the data, not from the text of the source: active = survival mostly below about 52% (no sharp cut-off); inactive = mostly above about 56%. This is one part of the list.

Test system: Wild type
Experiment: S. aureus survival, RN4220 and DeltatarO strains – OD600, teichoic acid synthesis inhibitors, primary screen (AID 463173)
Conditions: S. aureus RN4220 wild type/DeltatarO growth, OD600, 18 h, active compounds read low, screened at 18.75 µg/mL (by protocol)

Compound	survival
COc1ccc(C(=O)N(Cc2ccco2)Cc2ccccc2F)cc1Cl	inactive: 107%
O=C1CCC(C(=O)Nc2ccccc2)N1 (centres undefined)	inactive: 110%
Cc1ccc(Cn2c(SCc3ccc(C(=O)O)cc3)nc3cccnc32)cc1	inactive: 82%
O=C1CCCC(O)=C1C=Nc1cccc(C(F)(F)F)c1	inactive: 111%
COc1cccc(CC(=O)Nc2c(C(=O)N3CCN(c4ccccc4)CC3)oc3ccccc23)c1	inactive: 76%
CC(Sc1nc(NC(C)(C)C)nc(N(C)C)n1)C(=O)Nc1ccccc1 (centres undefined)	inactive: 103%
CC1CCCCC1NC(=O)CSc1nncn1N (centres undefined)	inactive: 108%
CCOc1ccc(CCNC(=O)c2ccc3nc(N4CCC(C)CC4)sc3c2)cc1OCC	inactive: 73%
CCOC(=O)CCc1c(C)c2cc3c(c(C)c2oc1=O)OCN(CCc1ccccc1OC)C3	inactive: 83%
CCN(CCCNC(=O)CN1N=C(c2ccccc2)CCC1=O)c1cccc(C)c1	inactive: 136%
CCC(C)n1c(=O)c2sccc2n2c(CCCC(=O)Nc3ccc(F)cc3)nnc12 (centres undefined)	inactive: 97%
CSc1ncc(Cl)c(C(=O)Nc2c(C(=O)c3ccc(C)cc3)oc3ccccc23)n1	inactive: 88%
Cc1ccc(NC(=O)NC(C)c2c(-n3cccc3)sc(C)c2C)c(C)c1 (centres undefined)	inactive: 80%
Cc1ccc(SCC(=O)Nc2ccc(O)c(-c3nc4cc(C)ccc4o3)c2)cc1	inactive: 83%
Cc1ccccc1-n1c(SCC(=O)c2ccccc2)nnc1-c1ccc(F)cc1	inactive: 136%
COc1ccc(NC(=O)c2ccco2)cc1NC(=O)c1cccc(C)c1OC	inactive: 60%
COc1cc(OC)cc(C(=O)Nc2cc(NC(=O)c3ccco3)ccc2OC)c1	inactive: 116%
O=C(Nc1ccccc1)C1CCN(S(=O)(=O)c2ccc3c(c2)CCCN3C(=O)C2CCC2)CC1	inactive: 66%
Cc1ccc2c(CN3CCN(c4ccc(Cl)cc4)CC3)cc(=O)oc2c1	inactive: 82%
Cc1ccc(CNC(=O)CCCCCn2c(=O)c3sccc3n(CC(=O)C(C)(C)C)c2=O)cc1	inactive: 77%
CC1CCCCN1CC(=O)N1CCN(C(=O)CN2CCCCC2C)CC1 (centres undefined)	inactive: 106%
COc1ccc(Cn2c(CCC(=O)Nc3cc(C)cc(C)c3)nc3cccnc32)cc1	inactive: 132%
Cc1ccc(NC(=O)CSc2nc(=O)n(Cc3ccncc3)c3c2CCC3)cc1Cl	inactive: 99%

Compound	survival
CCOc1cc(CNC(=O)CSc2n[nH]c(-c3ccccc3)n2)cc(OCC)c1OCC	inactive: 131%
Cc1ccc(Cl)cc1N(C)C(=O)c1sc2nc3n(c(=O)c2c1C)CCCC3	inactive: 77%
CCC(c1nnnn1CCc1ccccc1)N(Cc1ccco1)Cc1cc2cc(C)ccc2[nH]c1=O (centres undefined)	inactive: 106%
COc1ccc(Nc2ncc(C(=O)Nc3cccc(OC)c3)c3ccccc23)cc1	inactive: 130%
O=C1NC(c2ccco2)Nc2ccccc21 (centres undefined)	inactive: 124%
O=C(NCC1(c2ccccc2)CCCC1)C(=O)Nc1cccc(C(F)(F)F)c1	inactive: 104%
COc1ccc2nc(NS(=O)(=O)c3ccc(C)cc3)c(Nc3cc(Cl)ccc3OC)nc2c1	inactive: 68%
O=C(O)c1ccc(N2CCOCC2)cc1	inactive: 108%
N#CC1=C(N)OC2=C(C(=O)CCC2)C1c1ccccc1C(F)(F)F (centres undefined)	inactive: 109%
CCOc1ccc(CCNC(=O)CSc2cc(=O)n(C)c3ccccc23)cc1OCC	inactive: 127%
O=C1CC(c2ccccc2)Cc2[nH]c(=O)c(-c3nc(-c4cccc(Cl)c4)cs3)cc21 (centres undefined)	inactive: 81%
CCOC(=O)Cn1c(=O)oc2cc(S(=O)(=O)NCc3ccc(F)cc3)ccc21	inactive: 69%
COc1ccc(CNC(=O)C(=O)NCC(c2ccc3c(c2)OCO3)N2CCOCC2)cc1 (centres undefined)	inactive: 80%
O=C(CSc1n[nH]c(-c2ccccc2)n1)N1CCCCC1	inactive: 51%
COC(=O)c1sccc1S(=O)(=O)N1CCN(c2cccc(C)c2C)CC1	inactive: 67%
Cc1ccc(Cl)cc1N1CCN(C(c2ccc(F)cc2)c2nnc(-c3ccccc3)o2)CC1 (centres undefined)	inactive: 50%
O=C(CSc1nnc(CNc2ccccc2)o1)N1CCc2ccccc21	inactive: 105%
N#Cc1cc2cc(Br)ccc2oc1=O	inactive: 99%
COc1ccc(-c2cc(C(=O)N3CCN(c4ccccc4OC)CC3)c3cc(C(C)C)ccc3n2)cc1	inactive: 85%
Cc1noc(/C=C/N(C)C)c1S(=O)(=O)N1CCCC(C(=O)Nc2cccc(F)c2)C1 (centres undefined)	inactive: 73%
CCOc1ccc(CC(=O)NCCc2csc3nc(-c4ccccc4F)nn23)cc1	inactive: 119%
CC1CCCc2c1nc(N)c(C#N)c2-c1ccccc1 (centres undefined)	inactive: 108%
CCS(=O)(=O)Cc1cccs1	inactive: 109%

Compound	survival
O=C(CC(c1ccccc1)c1ccccc1)NCc1ccco1	inactive: 114%
Cc1ccc(CNC(=O)c2cn(C)c3ccc(S(=O)(=O)N(C)C4CCCCC4)cc3c2=O)cc1	inactive: 83%
CCc1ccc(-n2nc3ccc(NC(=O)c4cc5ccccc5o4)cc3n2)cc1	inactive: 80%
Cc1ccc(CNC(=O)c2nc(SCc3cccc(C)c3)ncc2Cl)cc1	inactive: 116%
CCOc1ccc(-c2cc3c(=O)n(Cc4nc(-c5cccc(OC)c5OC)oc4C)ccn3n2)cc1Cl	inactive: 145%
Nc1cc(C(=O)c2ccccc2)ccc1N1CCOCC1	inactive: 118%
CCC(=O)N1CCc2cc(S(=O)(=O)CCC(=O)N3CCN(c4cccc(C)c4)C(C)C3)ccc21 (centres undefined)	inactive: 83%
CCN(Cc1ccc(OC)cc1)c1ccc(-c2nc(-c3ccncc3)no2)cc1[N+](=O)[O-]	inactive: 85%
CC1CCN(C(=O)COc2ccc(C(C)C)cc2)CC1	inactive: 115%
COc1ccc(OC)c(S(=O)(=O)N2Cc3ccccc3CC2C(=O)Nc2ccc(C(C)=O)cc2)c1 (centres undefined)	inactive: 79%
Cc1cc(C)c(Cn2c3ccccc3c3cnn(CC(=O)NCCCc4ccccc4)c(=O)c32)c(C)c1	inactive: 141%
O=C(NCCc1ccccc1)c1ccc(Cn2c(SCc3ccc(F)cc3)nc3cccnc32)cc1	inactive: 87%
Cc1ccccc1Nc1c(-c2ccsc2)nc2c(C)cccn12	active: 0%
O=C(NCc1cccc(Cl)c1)c1cccn1-c1nnc(N2CCCC2)s1	inactive: 32%
COc1ccc(OC)c(CCNC(=O)CCn2c(=O)c3cccn3c3cccnc32)c1	inactive: 82%
CC(C)Cn1c(=O)c2ccccc2n2c(-c3ccc(Br)cc3)nnc12	inactive: 86%
CCCCN(c1ccccc1)c1ncnc2c1cnn2-c1ccc(Cl)cc1	inactive: 85%
Cc1ccc(CN(Cc2ccco2)c2cnc(S(C)(=O)=O)nc2C(=O)Nc2ccc(Br)cc2)o1	inactive: 124%
Cc1ccc(-c2cn3cccc(C)c3n2)cc1NS(=O)(=O)c1ccccc1	inactive: 55%
Cc1ccccc1NC(=O)Cn1c(=O)n(Cc2ccc3c(c2)OCO3)c(=O)c2oc3ccccc3c21	inactive: 82%
Cc1cc(C)cc(C(=O)Nc2cc(C(F)(F)F)ccc2N2CCN(c3ccccc3)CC2)c1	inactive: 78%
COc1ccc(-c2ccc(C#N)c(SCc3ccccn3)n2)cc1	inactive: 105%
O=C(c1ccccc1)N1CCc2cc(CNS(=O)(=O)c3ccccc3Cl)ccc21	inactive: 70%

Compound	survival
CCOc1cc(C(=O)OCc2cc(=O)n3c(C)csc3n2)cc(OCC)c1OCC	active: -3%
CC(=O)Nc1ccc(S(=O)(=O)NCC2CCC(C(=O)NCCCOC(C)C)CC2)cc1 (centres undefined)	inactive: 112%
Cc1ccc(-c2nn3c(C)nnc3c3ccccc23)cc1S(=O)(=O)NCCO	inactive: 68%
Cc1cccc(N(CC(=O)NC(C)c2ccccc2)S(=O)(=O)c2ccccc2)c1C (centres undefined)	inactive: 79%
CS(=O)(=O)c1ncc(N(Cc2ccccc2)Cc2ccco2)c(C(=O)Nc2cccc(C(F)(F)F)c2)n1	inactive: 77%
CC(C)Cn1c(=O)c2sccc2n2c(CCCC(=O)Nc3ccc(Cl)cc3)nnc12	inactive: 95%
Cc1cc(C)c(NC(=O)CSc2nc(=O)n(Cc3ccco3)c3c2CCC3)c(C)c1	inactive: 74%
O=C(NCCc1ccc(Cl)cc1)c1ccc2nc(Cc3ccccc3)oc2c1	inactive: 87%
COc1cccc(-c2nc(SCc3cc(=O)c4cc(Cl)ccc4[nH]3)n[nH]2)c1	inactive: 71%
COc1ccc2c(Sc3ccccc3)c(C(=O)NCCN(C)C)[nH]c2c1	inactive: 94%
Cc1cc2c(cc1S(=O)(=O)Nc1cccc(C(F)(F)F)c1)OCCN2C	inactive: 92%
CCOc1ccc(-c2nonc2NC(=O)c2ccccc2C)cc1	inactive: 125%
CCc1ccc(CN(Cc2ccco2)C(=O)c2cc(-c3ccc(Cl)cc3)on2)cc1	inactive: 89%
CC(C)(C)C1CCc2c(sc(NC(=O)c3ccccc3F)c2C(=O)N2CCCCC2)C1 (centres undefined)	active: -3%
Cc1ccc2c(c1)c(=O)c(S(=O)(=O)c1ccc(F)cc1)cn2CC(=O)Nc1ccc2c(c1)OCO2	inactive: 74%
CC(C)Oc1ccc(CNC(=O)Cc2ccc(NC(=O)N3CCSc4ncccc43)cc2)cc1	inactive: 73%
Cc1ccc(Cl)cc1NC(=O)NC1COc2ccccc2C1 (centres undefined)	inactive: 75%
O=C(Cc1ccc(Cl)cc1)Nc1ccc2oc(-c3ccccc3)nc2c1	inactive: 76%
CCN(CC)C(=O)c1sc2c(c1C)c(=O)n(-c1ccc(C)c(C)c1)c(=O)n2CC(=O)Nc1ccc(F)cc1	inactive: 101%
Cc1ccc(-n2ncc(C(=O)NCc3cccs3)c2C2CCN(C(=O)OC(C)(C)C)CC2)cc1C	inactive: 90%
